Measured values: PubChem BioAssay AID624296 (National Center for Advancing Translational Sciences (NCATS), 2012)
The campaign covered roughly 350,000 compounds. About 9,900 (2.8%) were called active. Inconclusive results, whose numbers are uncertain, are shown with a selection of clear calls. The call rests on the fitted dose curve; in most records, active means well fitted activation curve with a large enough effect; inconclusive means small, poorly fitted or top-dose-only effect; inactive means no such curve, though single readings can be large or run the other way. No potency is given beside an inconclusive call; the fits are too rough.
Potency means the concentration at half of the fitted maximal effect; tags describe the fitted curve by direction and shape.

Assay: A quantitative high throughput screen for small molecules that induce DNA re-replication in MCF 10a normal breast cells. Further: nearly all actives have a fitted effect of over 50% in size. On activity, positive = re-replication: % of control where 0% means no effect.
Details: MCF 10A DNA re-replication, Hoechst nuclear intensity, 48 h; activity, positive = re-replication: at 46.1 µM (top of the series)
With `COc1cccc(C(=O)NNC(=O)C(=O)Nc2ccc(OC)cc2OC)c1` the “activity, positive = re-replication” value was inactive: 13%. In the case of `CCNC(=O)N(CC)C[C@H]1N[C@@](Cc2ccccc2)(C(=O)OC)[C@H]2C(=O)N(C)C(=O)[C@@H]12`, the “activity, positive = re-replication” value is reported as inactive: -5.72%. In the case of `COc1ccc(-c2csc3ncn(Cc4ccccc4)c(=O)c23)cc1`, the Potency is reported as inconclusive [activator, single point]. In the case of `O=C(NC1CCCc2c1cnn2-c1cc(F)cc(F)c1)c1ccc[n+]([O-])c1` (stereo not given), the Potency is reported as inconclusive [activator, single point]. For `CC(=O)CSc1ccc(-c2nc3ccccc3[nH]2)cn1`, the “activity, positive = re-replication” value was inactive: 4.18%. With `Cc1cc([N+](=O)[O-])nn1CC(=O)N(C)Cc1ccccc1` the Potency was inconclusive [activator, single point]. For `CCOc1ccc(Br)cc1CSC(=N)N`, the Potency was inconclusive [activator, partial curve, poor fit]. With `Cc1ccc2c(c1)OC(=O)CC2c1ccccc1` (stereo not given) the Potency was inconclusive [activator, full curve, poor fit]. For `COc1cc(CNCCN2CCOCC2)ccc1OCc1c(Cl)cccc1Cl`, the Potency was inconclusive [activator, partial curve, poor fit]. With `CCOC(=O)c1c(C)nc2c(c1-c1cc(OC)ccc1OC)C(=O)c1ccccc1-2` the “activity, positive = re-replication” value was inactive: 0.541%. In the case of `C/C(=N\NC(=S)NC(C)C)c1ccc(-n2ccnc2)cc1`, the “activity, positive = re-replication” value is reported as inactive: 10.9%. For `CCc1nc(SCc2ccc(OCC(C)C)cc2)n[nH]1`, the “activity, positive = re-replication” value was inactive: 0.0476%. For `CC(C)C(NC(=O)c1ccccc1)C(=O)NCc1ccccn1` (stereo not given), the “activity, positive = re-replication” value was inactive: -14.9%. In the case of `COc1cc(/C=C2\SC(=O)NC2=O)ccc1OCc1ccc(Cl)nc1`, the Potency is reported as inconclusive [activator, full curve, poor fit]. With `CC1(C)CC2(C)Nc3ccccc3N2C(=S)N1` (stereo not given) the Potency was inconclusive [activator, single point]. In the case of `COc1cccc(/C=N/NC(=O)CNC(=O)COc2cccc(C)c2)c1O`, the Potency is reported as inconclusive [activator, partial curve, poor fit]. In the case of `CC1(C)Cc2c(c(-c3ccco3)nc3sc4c(NCCN5CCOCC5)ncnc4c23)CO1`, the Potency is reported as inconclusive [activator, single point]. With `CC(C)(C)OC(=O)N1CCC(C(=O)NCC2CCCO2)CC1` (stereo not given) the Potency was inconclusive [activator, full curve, poor fit]. In the case of `O=c1[nH]cc(-c2ccc(Br)cc2)n1Cc1ccccc1`, the Potency is reported as inconclusive [activator, partial curve, poor fit]. For `O=C(c1ccccc1)c1ccc(Oc2ccc([N+](=O)[O-])cc2[N+](=O)[O-])cc1`, the Potency was active: 11.6 µM.
